We go through 153 variants from a collection of fitness landscapes (doi:10.1126/science.1257360).

B1: PhoQ; a variant is named by its letters at X, in order, P23837 (parent)
chain: MKKLLRLFFPLSLRVRFLLATAAVVLVLSLAYGMVALIGYSVSFDKTTFRLLRGESNLFYTLAKWENNKLHVELPENIDKQSPTMTLIYDENGQLLWAQRDVPWLMKMIQPDWLKSNGFHEIEADVNDTSLLLSGDHSIQQQLQEVREDDDDAEMTHSVAVNVYPATSRMPKLTIVVVDTIPVELKSSYMVWSWFIYVLSANLLLVIPLLWVAAWWSLRPIEALAKEVRELEEHNRELLNPATTRELTSLVRNLNRLLKSERERYDKYRTTLTDLTHSLKTPLXXLQXXLRSLRSEKMSVSDAEPVMLEQISRISQQIGYYLHRASMRGGTLLSRELHPVAPLLDNLTSALNKVYQRKGVNISLDISPEISFVGEQNDFVEVMGNVLDNACKYCLEFVEISARQTDEHLYIVVEDDGPGIPLSKREVIFDRGQRVDTLRPGQGVGLAVAREITEQYEGKIVAGESMLGGARMEVIFGRQHSAPKDE

The list shows a part of the results.

In this assay the parent is B1. In words: enrichment ratio after two sorts for PhoP signalling (ratio (wild type AVST 3.29)); higher = more functional. As to conditions: with PhoP (E. coli).
YDYY: the enrichment ratio is not above 0.25. For the variant VEYA, the enrichment ratio is not above 0.25. Turning to ECKS, the enrichment ratio is not above 0.25. Turning to AWDF, the enrichment ratio is not above 0.25. Take IVAW: the enrichment ratio is not above 0.25.

In the case of HPQD, the enrichment ratio is not above 0.25. With HDYL, the enrichment ratio was not above 0.25. As to SKSC, the enrichment ratio was found to be 3.25. In the case of KRDL, the enrichment ratio is not above 0.25. The value for AIQP was not above 0.25; that for DESK was not above 0.25. Regarding ESCG, the enrichment ratio was not above 0.25. As for PRFN, the enrichment ratio is not above 0.25. The value for LFSF was not above 0.25; that for YIRN was not above 0.25. In the case of VYNL, the enrichment ratio was not above 0.25.

In the case of DFMC, the enrichment ratio was not above 0.25.

For LNWG, the enrichment ratio was not above 0.25. Consider FLTQ, for which the enrichment ratio was not above 0.25. In the case of NHLK, the enrichment ratio is not above 0.25. On to AWLW, for which the enrichment ratio was not above 0.25.

With SDID, the enrichment ratio was not above 0.25. For the variant CSRF, the enrichment ratio is not above 0.25. For the variant QFGI, the enrichment ratio is not above 0.25. In the case of QKWV, the enrichment ratio is not above 0.25. In the case of EPSD, the enrichment ratio is not above 0.25. In the case of PRRE, the enrichment ratio was not above 0.25. NAPL: the enrichment ratio was not above 0.25.

Consider FPMN, for which the enrichment ratio was not above 0.25. Consider VLYF, for which the enrichment ratio was not above 0.25. As for GVPA, the enrichment ratio is not above 0.25. Regarding PRHM, the enrichment ratio is not above 0.25. FLVT: the enrichment ratio was not above 0.25. With YGPH, the enrichment ratio is not above 0.25. For the variant MHHN, the enrichment ratio was not above 0.25. With KIGF, the enrichment ratio is not above 0.25. Turning to HYVD, the enrichment ratio is not above 0.25. As for TESM, the enrichment ratio amounted to 30.

As for MQQF, the enrichment ratio is not above 0.25.

In the case of HEER, the enrichment ratio is not above 0.25. In the case of DWSN it was not above 0.25; in that of PNSL, not above 0.25. GQWR: the enrichment ratio was not above 0.25. Take SNRS: the enrichment ratio was not above 0.25. For IYDS, the enrichment ratio was not above 0.25.

Regarding QTIM, the enrichment ratio is not above 0.25.

On to YWIH, for which the enrichment ratio was not above 0.25. With VREM, the enrichment ratio is not above 0.25.

With VGLS, the enrichment ratio stood at 5.47. With YGHI, the enrichment ratio is not above 0.25. With LVRW, the enrichment ratio was not above 0.25. For SQWK, the enrichment ratio was not above 0.25. On to TLFQ, for which the enrichment ratio is not above 0.25. On to QGYM, for which the enrichment ratio came to 23.9.

Regarding KFKQ, the enrichment ratio was not above 0.25. The value for YFCR was 0.754; that for AQDH was not above 0.25. For IDRN, the enrichment ratio is not above 0.25. In the case of MGNF it was not above 0.25.

As to EQPR, the enrichment ratio is not above 0.25.

Regarding GWVI, the enrichment ratio was not above 0.25.

FCRD: the enrichment ratio was not above 0.25. On to LYEI, for which the enrichment ratio is not above 0.25. Take QPDD: the enrichment ratio was not above 0.25. Regarding KAVM, the enrichment ratio was not above 0.25. With NVRT, the enrichment ratio was not above 0.25. Turning to HRWK, the enrichment ratio is not above 0.25. For the variant FDDD, the enrichment ratio is not above 0.25.

As for WQRN, the enrichment ratio was not above 0.25. In the case of EVCS, the enrichment ratio is not above 0.25. For VWDV, the enrichment ratio was not above 0.25. As for PFQQ, the enrichment ratio is not above 0.25. AALP: the enrichment ratio was not above 0.25.

Turning to DTQN, the enrichment ratio was not above 0.25.

With IQHK, the enrichment ratio was not above 0.25. The value for QDEN was not above 0.25; that for DNRV was not above 0.25; that for MDST was not above 0.25. The value for RTAI was not above 0.25; that for WDMQ was not above 0.25; that for RSTY was not above 0.25. In the case of PMVG it was not above 0.25; in that of MMLI, not above 0.25. SDFQ: the enrichment ratio is not above 0.25. FSIM: the enrichment ratio came out at 11.9. The value for IWCC was not above 0.25; that for IDNP was not above 0.25. As to LSLM, the enrichment ratio turned out to be 7.04. As for FCWR, the enrichment ratio was not above 0.25. In the case of YIEL, the enrichment ratio was not above 0.25. In the case of DYPV it was not above 0.25; in that of AMDF, not above 0.25. As for TNTW, the enrichment ratio was not above 0.25. In the case of KVTW it was not above 0.25. The value for ADHM was not above 0.25; that for TCSV was 17.7. Consider ALIR, for which the enrichment ratio was not above 0.25. On to PFGT, for which the enrichment ratio was not above 0.25. Turning to GSCR, the enrichment ratio is not above 0.25. As to DGWI, the enrichment ratio is not above 0.25.

Consider TVLR, for which the enrichment ratio is not above 0.25. Turning to NFRH, the enrichment ratio was not above 0.25.

Take VHDG: the enrichment ratio was not above 0.25. For DGIV, the enrichment ratio is not above 0.25.

For the variant QEAN, the enrichment ratio came out at 2.7. HMGA: the enrichment ratio was not above 0.25. As to MLYS, the enrichment ratio is not above 0.25. Consider EHPL, for which the enrichment ratio is not above 0.25. In the case of GKRT it was not above 0.25. Consider EEEL, for which the enrichment ratio is not above 0.25. On to YVII, for which the enrichment ratio is not above 0.25. Take WDWI: the enrichment ratio was not above 0.25. Turning to LVNN, the enrichment ratio is not above 0.25.

For the variant YVLY, the enrichment ratio is not above 0.25.

As to MNII, the enrichment ratio is not above 0.25. On to WWIS, for which the enrichment ratio was not above 0.25. In the case of HRVF it was not above 0.25; in that of HYHR, not above 0.25; in that of CIYF, not above 0.25. For YTED, the enrichment ratio is not above 0.25. In the case of SWQL it was not above 0.25. Take SLFV: the enrichment ratio was not above 0.25. Regarding ECHQ, the enrichment ratio is not above 0.25.

As to SFKH, the enrichment ratio is not above 0.25.

Turning to LGKI, the enrichment ratio is not above 0.25. YWQE: the enrichment ratio was not above 0.25.

Turning to AWKR, the enrichment ratio is not above 0.25. With GEWN, the enrichment ratio is not above 0.25. In the case of DHAF, the enrichment ratio was not above 0.25. In the case of KGAR, the enrichment ratio is not above 0.25. On to LQCL, for which the enrichment ratio was not above 0.25.

Take LHQM: the enrichment ratio was not above 0.25.

In the case of FKNR, the enrichment ratio is 1.62. Turning to AIYW, the enrichment ratio was not above 0.25. For the variant ATPE, the enrichment ratio is not above 0.25. LHRE: the enrichment ratio was not above 0.25. As for KSAP, the enrichment ratio was not above 0.25. In the case of PRQV, the enrichment ratio is not above 0.25. In the case of QMGN, the enrichment ratio was not above 0.25. The value for LQCI was not above 0.25; that for TMNF was 14.7; that for IFRV was not above 0.25. For MCMI, the enrichment ratio was 4.33. The value for SNQN was not above 0.25; that for NSKF was not above 0.25; that for SNQS was 4.98. The value for VFER was not above 0.25; that for ADNN was not above 0.25. On to IYGI, for which the enrichment ratio was not above 0.25. In the case of HLSK it was not above 0.25; in that of QGDG, 11.8. Regarding QQYN, the enrichment ratio is not above 0.25. The value for SGSG was 8.15.
